This passage reports cell count results from the supplement of paper PMC4604168 (melanoma cell lines).

Molecules are shown by their SMILES. The list shows a part of the results. Most values come without repeats; read them as rough.
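Also: cells treated in 1,536-well plates, then fixed and DAPI-stained, with nuclei counted from automated high-throughput microscope images.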

The subject of this assay is A375. The assay can be described thus: cell count relative to DMSO control; melanoma cells; higher = more viable cells. Particulars: library dose: standard library concentration; 72 h; first compound 2 µM.
`C[C@@H](N)c1ccc(C(=O)Nc2ccnc3[nH]ccc23)cc1` + C[C@@H]1CCN(C(=O)CC#N)C[C@@H]1N(C)c1ncnc2[nH]ccc12 [CP690550] (partner dose 5 µM) registered a cell count of 121%. Turning to `C[C@@H](N)c1ccc(C(=O)Nc2ccnc3[nH]ccc23)cc1` + O=C(O)c1ccc2c(c1)nc(Nc1cccc(Cl)c1)c1ccncc12 [CX4945] (partner dose 2 µM), the cell count was found to be 76.3%.

Molecule `CCCCCCCCCCCCCCCCCCOP(=O)([O-])OC1CC[N+](C)(C)CC1` [Perifosine] + CC(C)C[C@H](NC(=O)[C@H](Cc1ccccc1)NC(=O)c1cnccn1)B(O)O [Bortezomib] (partner dose 0.005 µM) had a cell count of 79.7%. The molecule `Cn1sc(=O)n(Cc2ccccc2)c1=O` + CC(C)C[C@H](NC(=O)[C@H](Cc1ccccc1)NC(=O)c1cnccn1)B(O)O [Bortezomib] (partner dose 0.005 µM) displayed a cell count of 99.3%. Next, `CCCCCCCCCCCCCCCCCCOP(=O)([O-])OC1CC[N+](C)(C)CC1` [Perifosine] + O=C(/C=C/c1cccnc1)NCCCCC1CCN(C(=O)c2ccccc2)CC1 [FK866] (partner dose 0.05 µM): 98.5%; `Cn1sc(=O)n(Cc2ccccc2)c1=O` + Cc1nc(Nc2ncc(C(=O)Nc3c(C)cccc3Cl)s2)cc(N2CCN(CCO)CC2)n1 [dasatanib] (partner dose 0.02 µM): 72.3%; `Cn1sc(=O)n(Cc2ccccc2)c1=O` + Cc1ccc(NC(=O)c2cccc(N(C)C)c2)cc1NC(=O)c1ccc(O)cc1 [ZM336372] (partner dose 10 µM): 84%. The value for `CCCCCCCCCCCCCCCCCCOP(=O)([O-])OC1CC[N+](C)(C)CC1` [Perifosine] + CC(=O)O[C@@]12CO[C@@H]1C[C@H](O)[C@@]1(C)C(=O)[C@H](O)C3=C(C)[C@@H](OC(=O)[C@H](O)[C@@H](NC(=O)OC(C)(C)C)c4ccccc4)C[C@@](O)([C@@H](OC(=O)c4ccccc4)[C@H]21)C3(C)C [Docetaxel] (partner dose 0.0005 µM) was 68.2%. Next, `Cn1sc(=O)n(Cc2ccccc2)c1=O` + O=C(CCCCCCC(=O)Nc1ccccc1)NO [vorinostat] (partner dose 0.4 µM): 96.8%; `Cn1sc(=O)n(Cc2ccccc2)c1=O` + NC1(c2ccc(-c3nc4ccn5c(=O)[nH]nc5c4cc3-c3ccccc3)cc2)CCC1 [MK2206] (partner dose 2 µM): 124%. On to `C[C@@H](N)c1ccc(C(=O)Nc2ccnc3[nH]ccc23)cc1` + C[C@]1(O)C[C@@H](c2nc(-c3ccc4ccc(-c5ccccc5)nc4c3)c3c(N)nccn32)C1 [OSI906] (partner dose 2 µM), for which the cell count stood at 83%. As for `C[C@@H](N)c1ccc(C(=O)Nc2ccnc3[nH]ccc23)cc1` + CN1CCN(c2ccc3nc(-c4c(N)c5c(F)cccc5[nH]c4=O)[nH]c3c2)CC1 [Dovitinib] (partner dose 0.5 µM), the cell count turned out to be 43.8%.

`C[C@@H](N)c1ccc(C(=O)Nc2ccnc3[nH]ccc23)cc1` + CS(=O)(=O)CCNCc1ccc(-c2ccc3ncnc(Nc4ccc(OCc5cccc(F)c5)c(Cl)c4)c3c2)o1 [lapatinib] (partner dose 4 µM): the cell count came to 126%. `C[C@@H](N)c1ccc(C(=O)Nc2ccnc3[nH]ccc23)cc1` + COc1cc2c(Oc3ccc4[nH]c(C)cc4c3F)ncnc2cc1OCCCN1CCCC1 [cediranib] (partner dose 2 µM) registered a cell count of 100%. Next, `CCCCCCCCCCCCCCCCCCOP(=O)([O-])OC1CC[N+](C)(C)CC1` [Perifosine] + C[C@@H]1CCN(C(=O)CC#N)C[C@@H]1N(C)c1ncnc2[nH]ccc12 [CP690550] (partner dose 5 µM): 53.3%; `C[C@@H](N)c1ccc(C(=O)Nc2ccnc3[nH]ccc23)cc1` + C#Cc1cccc(Nc2ncnc3cc(OCCOC)c(OCCOC)cc23)c1 [erlotinib] (partner dose 4 µM): 111%; `CCCCCCCCCCCCCCCCCCOP(=O)([O-])OC1CC[N+](C)(C)CC1` [Perifosine] + CO[C@H]1C[C@@H]2CC[C@@H](C)[C@@](O)(O2)C(=O)C(=O)N2CCCC[C@H]2C(=O)O[C@H]([C@H](C)C[C@@H]2CC[C@@H](OCCO)[C@H](OC)C2)CC(=O)[C@H](C)/C=C(\C)[C@@H](O)[C@@H](OC)C(=O)[C@H](C)C[C@H](C)/C=C/C=C/C=C/1C [everolimus] (partner dose 0.1 µM): 110%.
